Our source for the Relative Enzymatic Activity (%) in the 14C isotope exchange ACCase assay, +250 µg/ml avidin values is patent publication US20040086994A1.

For this assay, the target named is pCS204M-Saccharomyces cerevisiae, C-terminal His-tag S77Y mutant full length ACCase protein, 254.3 kDa protein (Saccharomyces cerevisiae) (UniProt Q00955). As to the kind of experiment: cell-based or functional assay.

With avidin (from UniProt P02701 25-152), the Relative Enzymatic Activity (%) in the 14C isotope exchange ACCase assay, +250 µg/ml avidin was 2.5%.
